Out of some 410,000 compounds screened, about 7,200 (1.8%) were called active. The inconclusive results got no clear call from the source; some entries with a clear call stand among them for comparison. Calls follow the shape of the dose curve; as a rule, active = well fitted activation curve with a large enough effect; inconclusive = small, poorly fitted or top-dose-only effect, or another doubt; inactive = no such curve, though single readings can be large or run the other way. Potencies of inconclusive entries are doubtful fits and often do not repeat.
test: qHTS of TDP-43 Inhibitors; settings: TDP-43 expressing yeast growth rescue, BacTiter-Glo, 24 h; growth rescue (activation): at 46.1 µM (top of the series) unless noted; also: nearly all actives have a fitted effect of over 50% in size; as to growth rescue (activation): % of control where 0% means no effect
How it was run: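 In this qHTS, compounds that restore growth of yeast expressing TDP-43 appear as activators. Cells (OD600=0.02, galactose medium, raffinose-pregrown) are incubated with compound 24 hr at 30 deg C and growth is quantified by BacTiter-Glo.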
Potency is read from the fitted curve at half-maximal effect; tags tell the direction and shape of the fitted curve.

Potency, inconclusive:
c1ccc(N2CCN(c3nc4ccccc4n4nnnc34)CC2)cc1 10 µM [activator, partial curve]
Cc1ccc(NC(=O)[C@@H]2CCCN2S(=O)(=O)c2ccc(Cl)cc2)cc1 11.2 µM [activator, single point]
CC(C)Sc1cc(N2CCOCC2)nc(-c2ccccc2)n1 22.4 µM [activator, single point]
CCOC(=O)C1CCN(c2ncnc3c2oc2ccc(Br)cc23)CC1 15.8 µM [activator, single point]
O=C(Nc1ccccc1)N1CCCC(c2nc(-c3ccc(F)cc3)no2)C1 (stereo not given) 35.5 µM [activator, single point]
Cc1ccc2c(c1)N(C(=O)N1CCC(C(=O)NCc3cccc(Br)c3)CC1)CCO2 7.94 µM [activator, partial curve]
CN1/C(=C\C(=S)NC(=O)c2cccc(Br)c2)C(C)(C)c2ccccc21 1.12 µM [activator, partial curve]
CCOc1ccc(NS(=O)(=O)c2ccc3ncsc3c2)cc1 12.6 µM [activator, single point]
CCOC(=O)/C(=C\c1cn(C)c2ccccc12)[N+](=O)[O-] 2.82 µM [activator, partial curve]
Cc1ccccc1SCC(=O)OCC(=O)Nc1ccc(N(C)C)cc1 15.8 µM [activator, partial curve]
COc1ccccc1N1CCN(c2nc3ccccc3n3cnnc23)CC1 22.4 µM [activator, single point]
Cc1nc2nc(SCC(=O)N(C)Cc3ccccc3)nn2c(C)c1Cc1ccccc1Cl 35.5 µM [activator, single point]
COc1cc(NC(=S)NCCSc2ccc(C)cc2)cc(OC)c1 12.6 µM [activator, single point]
Cc1cccc(C)c1N1C(=O)CC(N2CCSCC2)C1=O (stereo not given) 22.4 µM [activator, single point]
COc1ccc2c(c1)c1ccc3c(c1n2C)C(=O)C=CC3=O 11.2 µM [activator, partial curve]
Cc1cc(NC(=O)c2cc(CC(C)C)on2)n(-c2ccccc2)n1 35.5 µM [activator, single point]
O=C(NC1=NCCS1)c1sc2ccccc2c1Cl 35.5 µM [activator, single point]
Cn1c(=O)n(Cc2ccc(Cl)cc2)c2ccccc21 15.8 µM [activator, single point]
Cc1cc(C)c(C(=O)COC(=O)c2cccnc2Cl)c(C)c1 11.2 µM [activator, single point]
Cc1cccc(NC(=O)c2ccc3nc(N4CCOCC4)sc3c2)c1C 3.55 µM [activator, partial curve]
O=C(CCNS(=O)(=O)c1ccc(Br)cc1)NCc1ccc(Cl)cc1 5.62 µM [activator, single point]
C=CCNC(=O)c1onc(CSc2cccc(C)c2)c1C(=O)O 5.62 µM [activator, partial curve]
CCOC(=O)C1CCCN(C(=S)Nc2cc(C)cc(C)c2)C1 (stereo not given) 22.4 µM [activator, single point]
CCCCN=C1CC(C)(C)CC(=O)/C1=C(/O)CCC 1.41 µM [activator, partial curve]
CC(=O)NC(c1cccc(F)c1)c1nc(-c2cccc(C(=O)O)c2)cs1 (stereo not given) 35.5 µM [activator, partial curve]
Nn1c(-c2cccs2)nc2sc3c(c2c1=O)CCCC3 31.6 µM [activator, single point]
COc1ccc(F)cc1-c1cc(C(=O)Nc2cccnc2)[nH]n1 35.5 µM [activator, single point]
O=C(Nc1cccc([N+](=O)[O-])c1)N1CCc2ccccc2C1 10 µM [activator, partial curve]
CCc1ccc(NC(=O)Nc2cn(C)c(=O)c3ccccc23)cc1 25.1 µM [activator, partial curve]
Cc1ccc(NC(=O)C2CCCCC2)cc1C 3.98 µM [activator, full curve]
COC(=O)COC(=O)c1ccc(-n2nnnc2SC)cc1 35.5 µM [activator, single point]
O=C(c1ccc(F)cc1)C1CCN(C(=O)c2ccccc2)CC1 10 µM [activator, partial curve]

Potency, inactive:
OC(COCc1cccs1)CN1CCN(c2ccccc2Cl)CC1 (stereo not given)
Cc1nn(Cc2cccc(C(=O)Nc3ccn(Cc4c(F)c(F)cc(F)c4F)n3)c2)c(C)c1[N+](=O)[O-]
O=C(NC(=S)Nc1ccc(S(=O)(=O)N2CCCC2)cc1)C1CC1
CC(C)(C)C(=O)Nc1ccc(C(=O)CN2C(=O)NC3(CCOc4ccccc43)C2=O)cc1 (stereo not given)
Clc1ccc(Cl)c(OCc2cc(-c3ccccc3Cl)on2)c1
Cc1cc(F)ccc1-c1cc(C(=O)NCC2CCCCC2)[nH]n1
CCc1c(C)sc2c1CCN(Cc1ccccc1)C2c1ccccc1 (stereo not given)
O=C(NCc1ccc(Cl)cc1)c1cnccn1

Potency, active:
Cc1cccc(Cn2cc(/C=C/[N+](=O)[O-])c3ccccc32)c1 14.1 µM
Nc1cc2c(cc1C(=O)c1ccccc1F)OCCO2 17.8 µM
O=[N+]([O-])C1C(c2ccccc2)=NOC1c1ccccc1O (stereo not given) 17.8 µM

Growth rescue (activation), inactive:
Cc1c(Cl)cccc1-c1ccc(CNCCCSc2nnnn2C)o1 0% [at 9.22 µM]

Growth rescue (activation), inconclusive:
O=C1C(=O)c2ccccc2C(O)=C1CCCCl -87.3% [activator]
